The text below walks through data of paper PMC8550248, “An unexpected role for Dicer as a reader of the unacetylated DNA binding domain of p53 in transcriptional regulation” (Science Advances, 2021).

The target of the assay is T1, HA-tagged Dicer, from HEK293 (UniProt Q9UPY3 1-1922).
T1 construct: Dicer, full length, residues 1-1922; cDNA from Addgene plasmid 19873, subcloned into pRK5; the length 1922 fits human Dicer; also called purified Dicer; purified recombinant Dicer protein; source: HEK293, transfected
As to the kind of experiment: pull-down; GST-p53 fragments immobilised on GST Bind Resin, incubated with purified Dicer 4 hours at 4°C, washed with BC100 buffer six times; Western blot. As to conditions: both partners purified. On the technique in general: Immunoblotting shows a protein as a band on a membrane.

B1: GST-p53 […] (domain or fragment)
chain: not shown
On to B1, for which the binding result is “binds”.
